The list shows a part of the results. At the low end of the ranking the order means little.

In the assay the test system is MYC (p64) + MAX (p21), in MYC:MAX. The experiment in a line: protein-binding microarray (anti-MAX antibody). The conditions noted are these: PBM: 15 mM Tris-HCl pH 7.5, 100 mM KCl, 0.075% NP40, 7.5 mM beta-mercaptoethanol, 375 ng/ul BSA, 8 ng/ul poly(dA-dT):(dA-dT), 550 ng complex, 60 min, room …; high values mean tight binding; double strand, one strand shown; sequences stand for … in CCGGC…TTAATAGCTAAGATTACTATATCGACG
For the sequence TGAAGCATTGTA, the binding signal (log2 normalized fluorescence) was 0.47.

Consider TGACTTAACGTA, for which the binding signal (log2 normalized fluorescence) is 0.12.

TGAACATCGGTA: the binding signal (log2 normalized fluorescence) was found to be 0.234. For TGACGGTGTGTA the value was 0.355; for TGAGGTCCCGTA, 0.00547; for TGAAGCCAAGTA, -0.132. For TGAAGCAGCGTA the value was 0.063. TGATTGTTTGTA: the binding signal (log2 normalized fluorescence) was -0.101. On to TGAGGCTCTGTA, for which the binding signal (log2 normalized fluorescence) was -0.0561.

With TGACGCCTCGTA, the binding signal (log2 normalized fluorescence) amounted to 0.208. Turning to TGACTAAGCGTA, the binding signal (log2 normalized fluorescence) is 0.0216. For TGACTCACGGTA the value was 0.255; for TGAGCCTATGTA, -0.0846; for TGAAGGAGGGTA, -0.12.

Regarding TGATCTGTGGTA, the binding signal (log2 normalized fluorescence) was 0.0273. Turning to TGAGAGAATGTA, the binding signal (log2 normalized fluorescence) was 0.0493.

As to TGAGAATACGTA, the binding signal (log2 normalized fluorescence) was -0.0101. On to TGAGGGTGAGTA, for which the binding signal (log2 normalized fluorescence) was -0.0316. To TGACAGGGAGTA belongs 0.0524; to TGAATGAATGTA, 0.23. As to TGAGAGCTCGTA, the binding signal (log2 normalized fluorescence) is -0.00418. Turning to TGATAACCCGTA, the binding signal (log2 normalized fluorescence) turned out to be 0.17.

With TGACCTCGCGTA, the binding signal (log2 normalized fluorescence) came to 0.458.

For TGACCACTAGTA, the binding signal (log2 normalized fluorescence) was found to be 0.286.

Turning to TGAGGCATTGTA, the binding signal (log2 normalized fluorescence) is 0.256. For the sequence TGATGTCCTGTA, the binding signal (log2 normalized fluorescence) was 0.048. For TGAGAATCTGTA the value was -0.193; for TGCGTCGTGGTA, 0.418. Regarding TGATTCATCGTA, the binding signal (log2 normalized fluorescence) is -0.148.

As to TGAGAGGACGTA, the binding signal (log2 normalized fluorescence) is -0.0569.

As to TGACACGCCGTA, the binding signal (log2 normalized fluorescence) stood at 0.447. In the case of TGAGGACGGGTA, the binding signal (log2 normalized fluorescence) was -0.09. In the case of TGATCACAGGTA, the binding signal (log2 normalized fluorescence) is 0.157. In the case of TGAGGGTTTGTA, the binding signal (log2 normalized fluorescence) is 0.025. TGAAGGCCCGTA: the binding signal (log2 normalized fluorescence) came out at 0.0982. To TGATGTGAGGTA belongs 0.132. With TGACGTTAAGTA, the binding signal (log2 normalized fluorescence) is -0.00872. As to TGAGCCGCAGTA, the binding signal (log2 normalized fluorescence) was -0.111. To TCACACCTGTTA belongs 0.547; to TGAGTAAATGTA, -0.0255; to TGATGTAGCGTA, -0.112. For TGAAGCTGCGTA, the binding signal (log2 normalized fluorescence) was -0.129. In the case of GGACTCGTGATA, the binding signal (log2 normalized fluorescence) came out at 0.37. As for TGAAGAATTGTA, the binding signal (log2 normalized fluorescence) was found to be 0.0207. On to TGAAGCAAAGTA, for which the binding signal (log2 normalized fluorescence) was 0.125. On to TGATGACACGTA, for which the binding signal (log2 normalized fluorescence) is 0.247. As for TGACAAAGAGTA, the binding signal (log2 normalized fluorescence) came to 0.0488. As to TGAAGCGGGGTA, the binding signal (log2 normalized fluorescence) was determined as 0.271.

Regarding TGACTTGTCGTA, the binding signal (log2 normalized fluorescence) was -0.0101.

Turning to TGACACGAGATA, the binding signal (log2 normalized fluorescence) came to 0.491. Regarding TGACACCATGTA, the binding signal (log2 normalized fluorescence) came out at 0.248.

Consider TGAGTAGTAGTA, for which the binding signal (log2 normalized fluorescence) was -0.16. In the case of TGAACATTCGTA, the binding signal (log2 normalized fluorescence) worked out at 0.164. Turning to TGAGATAACGTA, the binding signal (log2 normalized fluorescence) amounted to 0.034. For TGACGTATGGTA, the binding signal (log2 normalized fluorescence) turned out to be 0.28.

Consider TGAATCCCTGTA, for which the binding signal (log2 normalized fluorescence) turned out to be 0.136. For TGAGTCACAGTA the value was 0.0795; for TGAAAGAACGTA, 0.0771; for CGACGAGTGGTA, 0.229. As for TGACATCACGTA, the binding signal (log2 normalized fluorescence) stood at 0.49.

On to TGACAAGTCGTA, for which the binding signal (log2 normalized fluorescence) was -0.0633. For the sequence TGACAGAACGTA, the binding signal (log2 normalized fluorescence) was found to be 0.0477. For TGACTGAAGGTA the value was 0.041; for TGACGTGGTGTA, 0.243.

With TTTCAGGTGGTA, the binding signal (log2 normalized fluorescence) came to 0.195. To TGAAACGGGATA belongs 0.0551; to TGAAACTAAGTA, -0.0738. To TGAGAGAGGGTA belongs -0.119. On to TGATCAGTGGTA, for which the binding signal (log2 normalized fluorescence) was 0.152. For TGAAGTGCAGTA, the binding signal (log2 normalized fluorescence) amounted to 0.196. Regarding TGAGATTTGGTA, the binding signal (log2 normalized fluorescence) was -0.188. To TGACAGAAAGTA belongs -0.0314; to TGAAGGGCGGTA, 0.109; to TTTCACATGGTA, 0.504. Take TGAGGCAATGTA: the binding signal (log2 normalized fluorescence) was found to be 0.116. As to TGATCCTTCGTA, the binding signal (log2 normalized fluorescence) is -0.0978. For TGATCTAGAGTA the value was -0.0994; for TGACAAGATGTA, 0.217. In the case of TGAGCGTGCGTA, the binding signal (log2 normalized fluorescence) amounted to 0.326. With TGAGATTAAGTA, the binding signal (log2 normalized fluorescence) was -0.164. For TGAAGTCTGGTA the value was 0.162; for TGACGCGGAGTA, 0.127; for TGACGCGGCGTA, 0.201. For the sequence TGAACCGAAGTA, the binding signal (log2 normalized fluorescence) is 0.0529. GAAGCTTTGGTG: the binding signal (log2 normalized fluorescence) is -0.157. TGAATTCATGTA: the binding signal (log2 normalized fluorescence) was 0.297. Consider TGAATCTGTGTA, for which the binding signal (log2 normalized fluorescence) was -0.0948. For the sequence TGAGTGATCGTA, the binding signal (log2 normalized fluorescence) came to 0.194. For TGAGTTCTTGTA the value was -0.272; for TGATGGGGCGTA, 0.129; for TGAAGGCACGTA, 0.12. In the case of TGACTACTAGTA, the binding signal (log2 normalized fluorescence) was determined as 0.17.

For the sequence TGATGTAGGGTA, the binding signal (log2 normalized fluorescence) amounted to 0.174. Take TGACATACGGTA: the binding signal (log2 normalized fluorescence) is 0.172. As for TGATTGTCTGTA, the binding signal (log2 normalized fluorescence) was 0.0975. To TGACATGACGTA belongs 0.368; to TGATGCGGCGTA, 0.216. With AAGTTTAAGCCG, the binding signal (log2 normalized fluorescence) stood at 0.00903.

Consider TGATATTGGGTA, for which the binding signal (log2 normalized fluorescence) was -0.186. For TGAGTAAAGGTA, the binding signal (log2 normalized fluorescence) was -0.0241. Take TGACCGCTGGTA: the binding signal (log2 normalized fluorescence) was 0.0667. To TGACCGACAGTA belongs 0.152. In the case of TGAGCCCAGGTA, the binding signal (log2 normalized fluorescence) came to 0.000247.

For the sequence TGAGAATGAGTA, the binding signal (log2 normalized fluorescence) was found to be 0.0435. For TGAGTACCAGTA the value was 0.201. With TGAGGGACTGTA, the binding signal (log2 normalized fluorescence) was 0.0339. To TGAAATGCGGTA belongs 0.511; to TGAACGGCAGTA, 0.0669; to TAGGTCAGAGCC, -0.355. Consider TGAGATGGCGTA, for which the binding signal (log2 normalized fluorescence) worked out at 0.105. On to TGAAAGCCTGTA, for which the binding signal (log2 normalized fluorescence) turned out to be 0.107. Regarding TGAGGTACCGTA, the binding signal (log2 normalized fluorescence) worked out at 0.125. TGATCTTCAGTA: the binding signal (log2 normalized fluorescence) came to 0.0538.

With TGACAGTAAGTA, the binding signal (log2 normalized fluorescence) amounted to 0.212. To TGACTCTGAGTA belongs -0.0923; to TGATAGCTTGTA, -0.0392; to TGATACGTGTTG, 0.282. For TGACGGCTGGTA, the binding signal (log2 normalized fluorescence) was found to be 0.237.

As to TGATAAACAGTA, the binding signal (log2 normalized fluorescence) was found to be 0.0767. For TGACTGGATGTA the value was 0.15; for TGAGGAAGGGTA, 0.0351; for TGATGTGGTGTA, 0.237. For the sequence TGACACAATGTA, the binding signal (log2 normalized fluorescence) came to 0.33. Regarding TGATCAGTCGTA, the binding signal (log2 normalized fluorescence) is -0.235. On to TGACAGTTAGTA, for which the binding signal (log2 normalized fluorescence) is -0.0778. For the sequence CCTCACGTGGTA, the binding signal (log2 normalized fluorescence) turned out to be 0.828. To TGATCGGCGGTA belongs 0.0519; to TGACGTGAAGTA, 0.0489; to TGATCTTTCGTA, -0.0975. Consider TGATTTCATGTA, for which the binding signal (log2 normalized fluorescence) was 0.198.

For TGAATCAGCGTA, the binding signal (log2 normalized fluorescence) is -0.257. Consider TGATTTGCAGTA, for which the binding signal (log2 normalized fluorescence) was -0.154. For the sequence TGACTCGTGCTG, the binding signal (log2 normalized fluorescence) was determined as 0.41. CGGCTCGTGGTA: the binding signal (log2 normalized fluorescence) stood at 0.412. With TGATGTCGCGTA, the binding signal (log2 normalized fluorescence) was 0.18.

As for TGAACCCGAGTA, the binding signal (log2 normalized fluorescence) is 0.0729.

On to TGATCAGAGGTA, for which the binding signal (log2 normalized fluorescence) is 0.0884.

Regarding TGAGTGCGAGTA, the binding signal (log2 normalized fluorescence) is 0.0338. With TGAAAACTTGTA, the binding signal (log2 normalized fluorescence) is -0.0577.

Turning to TGATTGCGGGTA, the binding signal (log2 normalized fluorescence) came to 0.0152.

With TGACCACGCGTA, the binding signal (log2 normalized fluorescence) turned out to be 0.553. With TTGTACGTGGTA, the binding signal (log2 normalized fluorescence) worked out at 0.384. As for TGAAATAACGTA, the binding signal (log2 normalized fluorescence) was found to be 0.0565. GCTGGTAGCGCC: the binding signal (log2 normalized fluorescence) was -0.0633. As for TGACAGCTTGTA, the binding signal (log2 normalized fluorescence) stood at 0.0423.

On to TGACGGTATGTA, for which the binding signal (log2 normalized fluorescence) was found to be 0.151. For the sequence TGAATATATGTA, the binding signal (log2 normalized fluorescence) stood at 0.0567. On to TGAGGATAAGTA, for which the binding signal (log2 normalized fluorescence) is -0.199. With TGAAAAATAGTA, the binding signal (log2 normalized fluorescence) is -0.136.

As to TGACAAACGGTA, the binding signal (log2 normalized fluorescence) stood at 0.0333. For the sequence TGATGGGCTGTA, the binding signal (log2 normalized fluorescence) turned out to be 0.0985.

For TGACTCGGGGTA, the binding signal (log2 normalized fluorescence) is 0.271.

Regarding TGATAAACTGTA, the binding signal (log2 normalized fluorescence) is 0.0092. On to GTACACGTGGTC, for which the binding signal (log2 normalized fluorescence) was 0.89. As to TGAGGTTGGGTA, the binding signal (log2 normalized fluorescence) is -0.0801. In the case of TGAGTGAACGTA, the binding signal (log2 normalized fluorescence) is 0.164. Regarding TGAACCCGTGTA, the binding signal (log2 normalized fluorescence) is 0.4. For TGATTAACAGTA the value was -0.108. To TTAAGCGTGGTA belongs 0.561. Regarding TGAGGCCTGGTA, the binding signal (log2 normalized fluorescence) is -0.0289. TGTCAGGTGCTA: the binding signal (log2 normalized fluorescence) stood at 0.38.

Regarding TGAGCAACTGTA, the binding signal (log2 normalized fluorescence) amounted to 0.128.

Turning to TGAACGGACGTA, the binding signal (log2 normalized fluorescence) was determined as 0.0519. To TGAACTAGGGTA belongs 0.0193; to TGAAACCGCGTA, 0.25; to TGAAACGAGGTA, 0.314. As to TGAGAAGGAGTA, the binding signal (log2 normalized fluorescence) is -0.0932. Take TGCCACGTGGAA: the binding signal (log2 normalized fluorescence) was determined as 0.873. As for GGGCACGTGGTC, the binding signal (log2 normalized fluorescence) was 0.929.

As to TGATCCGAGGTA, the binding signal (log2 normalized fluorescence) was -0.0333. In the case of TGAGTGCAAGTA, the binding signal (log2 normalized fluorescence) was found to be 0.268. On to TGATGTAAAGTA, for which the binding signal (log2 normalized fluorescence) was -0.123. To TGATCAAGAGTA belongs -0.0485; to TGATTCTGGGTA, -0.191. On to TGAGCGTTCGTA, for which the binding signal (log2 normalized fluorescence) amounted to 0.0308.

(Values after article PMC5515408.)
